The other results are listed elsewhere or left out.

The experiment has as its target T1, OsWOX13 (Oryza sativa, UniProt Q5QMM3 1-267).
T1 sequence: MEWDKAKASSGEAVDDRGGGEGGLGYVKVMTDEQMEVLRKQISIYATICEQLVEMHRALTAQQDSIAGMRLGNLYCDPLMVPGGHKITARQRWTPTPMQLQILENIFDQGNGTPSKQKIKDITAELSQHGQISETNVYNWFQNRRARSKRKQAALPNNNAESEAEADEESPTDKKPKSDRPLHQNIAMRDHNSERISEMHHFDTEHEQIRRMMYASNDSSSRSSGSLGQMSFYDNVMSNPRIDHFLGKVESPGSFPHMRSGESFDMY
As to the kind of experiment: protein-binding microarray (RPBM); PBS, 2% BSA, 51.3 ng/ul salmon testes DNA, 50 uM zinc acetate, 200 nM TF, 25 C, 1 h; high values mean tight binding. The settings on record: protein: recombinant; tags: N-terminal polyhistidine and DsRed monomer fusion (pET32a); label: CyDye5-dUTP incorporated in the synthesized complementary strand; 3' TTTTT single-stranded linker to array surface; dsDNA, one strand shown. Put shortly: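 For the binding signal, per-feature fluorescence intensity was read in arbitrary units on an Axon 4000B scanner. Before scanning, a 2% BSA-blocked custom Agilent array made double-stranded with Cy5-dUTP was washed after 1 h at 25 °C with 200 nM protein and 50 µM zinc acetate. The proteins were Ni–NTA-purified transcription factors with N-terminal polyhistidine and DsRed fusions, expressed in E. coli BL21-CodonPlus.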
As for “ACCAAATTTGATAAGGTTTATTTTGGCTACAATCAGAACACGGAGTCACCTAGTGCAG”, the binding signal is 8770 fluorescence intensity (a.u.).
“TTAATTTGAAAACTTAAAATTGGTATGCATATTCTTGTCTCGGAGTCACCTAGTGCAG”: the binding signal was 9480 fluorescence intensity (a.u.).
The result for “TCTCAATAAATTACAACAATTTCTCGTCTCAACCTTAGTTCGGAGTCACCTAGTGCAG” reads 7520 fluorescence intensity (a.u.).
Regarding “TTAATTATAAATATTAAACGTAGACTATTAATAAAACTCACGGAGTCACCTAGTGCAG”, the binding signal was 8680 fluorescence intensity (a.u.).
The result for “GACCAATCAAACAAACTTCCATAGAGGATCATCCTCCCTTCGGAGTCACCTAGTGCAG” reads 9370 fluorescence intensity (a.u.); that for “AATTAATGTGAGATTTTATAGCCTCCATAATGAATGTGGTCGGAGTCACCTAGTGCAG”, 4230 fluorescence intensity (a.u.).
The result for “TATATTTAATTATCGATTTGATGAAACTAATTTAGTATTACGGAGTCACCTAGTGCAG” reads 14500 fluorescence intensity (a.u.).
The result for “TTCTAATTAGATTTGATAAAGTACTAATATTCATTTTGGTCGGAGTCACCTAGTGCAG” reads 63100 fluorescence intensity (a.u.).
As to “TACTTAATTAATTACCACGTTATGTTTTACGGGCGGCTAACGGAGTCACCTAGTGCAG”, the binding signal was 45600 fluorescence intensity (a.u.).
For “CACTTGACTTAATTATCTCTTGAGGCCACAATATATAGCTCGGAGTCACCTAGTGCAG”, the binding signal is 27700 fluorescence intensity (a.u.).
As for “TTGTGATTGATTTCACACCCAAACAACAAGTAGTCAGCTACGGAGTCACCTAGTGCAG”, the binding signal was 61300 fluorescence intensity (a.u.).
Consider “TTGATGATAAGAATTAATTAGGATTTTCAAATAAACAAACCGGAGTCACCTAGTGCAG”, for which the binding signal was 20700 fluorescence intensity (a.u.).
Take “ATAGTTGATGATTCTATCATAAAACCGGTTTGTGATAGATCGGAGTCACCTAGTGCAG”: the binding signal was 7250 fluorescence intensity (a.u.).
Take “CAAGATTGGGCGAGGGAGGGAGGAGTCCAGATCCTGCCTCCGGAGTCACCTAGTGCAG”: the binding signal is 3250 fluorescence intensity (a.u.).
Regarding “AGCACATCACCTGATTGCACTGCACTGCTCTTGCTTTCCCCGGAGTCACCTAGTGCAG”, the binding signal is 6270 fluorescence intensity (a.u.).
“CATAAGATTATTAGTAATATCTAAATACACCGGCCCAACCCGGAGTCACCTAGTGCAG”: the binding signal is 3540 fluorescence intensity (a.u.).
For the sequence “AGTGATAAATTTGAGTGATTACTATATGACACCGTTGTGTCGGAGTCACCTAGTGCAG”, the binding signal is 55700 fluorescence intensity (a.u.).
With “ATAATTGTGAATTTCTCGGGTCACTACTGTTCATTGTGCGCGGAGTCACCTAGTGCAG”, the binding signal was 8120 fluorescence intensity (a.u.).
The result for “AAATTCCGAATTTGATTCTTAATTAAGGCGAGCTATTCACCGGAGTCACCTAGTGCAG” reads 3490 fluorescence intensity (a.u.).
The result for “TGACGAATTAACTGACGACCGCGGCTCAATCGATCGATCTCGGAGTCACCTAGTGCAG” reads 3540 fluorescence intensity (a.u.); that for “TCGGATCGGATTAATTTTCACTAGCCTTAATTAGCATAGCCGGAGTCACCTAGTGCAG”, 8950 fluorescence intensity (a.u.); that for “CTGTGTGGATGAACTCTGATTGGATTCCAGCTACTATTTGCGGAGTCACCTAGTGCAG”, 12800 fluorescence intensity (a.u.).
On to “ATAGCTAGATGGGCTGGATTGACCCGCGTCCGCGTGGCCGCGGAGTCACCTAGTGCAG”, for which the binding signal was 5350 fluorescence intensity (a.u.).
For “CTCCAATTTAAAATTTCAACCCAATTTTAAACTTTGCCCACGGAGTCACCTAGTGCAG”, the binding signal was 9760 fluorescence intensity (a.u.).
In the case of “ACCAAAATTATTAAAATCCGGTGTAATACGCCCTCTCGCACGGAGTCACCTAGTGCAG” it was 5770 fluorescence intensity (a.u.); in that of “CGCGTAGATTGAAACTGGACAAGCAGTACATGTACAAAATCGGAGTCACCTAGTGCAG”, 17900 fluorescence intensity (a.u.).
The result for “CTTGATGATTAGTAGTAGTACGATTTACGAGTGCTAATGGCGGAGTCACCTAGTGCAG” reads 26700 fluorescence intensity (a.u.).
As for “TCACTCACTCACTCATCACGCTTTCGATCATCCGCTTTTCCGGAGTCACCTAGTGCAG”, the binding signal was 3170 fluorescence intensity (a.u.).
For “TCCATGTTAATTAATTTGATCAGTTGGACGCATATTTGCGCGGAGTCACCTAGTGCAG”, the binding signal is 35600 fluorescence intensity (a.u.).
The result for “TGATCCAATTATTTATTTGTAACTACTCAAACGCGTACCTCGGAGTCACCTAGTGCAG” reads 16400 fluorescence intensity (a.u.); that for “ACCAATCCGAAATGATTAGAGACGCCAAAAGGCCCACTTTCGGAGTCACCTAGTGCAG”, 4980 fluorescence intensity (a.u.); that for “AATAAAATTTACGCTAATGTCGGATTCCTTTTACAAAGTTCGGAGTCACCTAGTGCAG”, 3570 fluorescence intensity (a.u.).
In the case of “CATCATTTAGTAATTTAGAAAGCGTGCACATAATGAGTTTCGGAGTCACCTAGTGCAG” it was 3240 fluorescence intensity (a.u.); in that of “AGTAACGTGAGTAGATTAGTGCTTACACCAATACATCCATCGGAGTCACCTAGTGCAG”, 3460 fluorescence intensity (a.u.); in that of “GTTTAGTGCTCAGACGAAGCAACGTACTAATGCATGACACCGGAGTCACCTAGTGCAG”, 9550 fluorescence intensity (a.u.).
The result for “TTGACAAATCAACATCTATCTCATATATGCAGGTAATATTCGGAGTCACCTAGTGCAG” reads 6460 fluorescence intensity (a.u.).
With “CGCTAATTTATTGTGTTCATAATAGAGTACTACTACTAATCGGAGTCACCTAGTGCAG”, the binding signal was 21700 fluorescence intensity (a.u.).
The result for “GACATACAGATTAGGTGGTAAATAAATCAAGTCGGGCGTACGGAGTCACCTAGTGCAG” reads 6120 fluorescence intensity (a.u.); that for “ATAGATAATATGATAATTTTGTATCAGTGACTAGACCATACGGAGTCACCTAGTGCAG”, 11200 fluorescence intensity (a.u.).
The result for “TAGTGATTATTATGAAATGACCATATAAGTTTATGCTTACCGGAGTCACCTAGTGCAG” reads 16700 fluorescence intensity (a.u.).
The result for “ACTGATTAGTGGATATGCTTTATATATGTAATTAGGATGCCGGAGTCACCTAGTGCAG” reads 53000 fluorescence intensity (a.u.); that for “CCAAATTTTAGTAATTATATAAGAAATCCTGCCAAAATTTCGGAGTCACCTAGTGCAG”, 11300 fluorescence intensity (a.u.).

The values are drawn from paper PMC7819943, “Rice protein-binding microarrays: a tool to detect cis-acting elements near promoter regions in rice”.
